IC50 is the fitted dose that halves viability relative to control wells, and lower means more sensitive; a limit (>, <) means that the fit lies beyond the doses tested. AUC, from the same fit, is the share of area under the viability curve across the 256-fold dose range; values near 1 show little effect. The top dose, if marked as inferred, is not printed in the source and was worked back from the curve model. For some of these results: An entry number marks a drug with two screens in the source, which often give different values.
Assays:
Assay in all cases: Viability of human cancer cell lines after 72 h of drug (GDSC screen)
[1] = compound: CCNc1cc(NC2CCC(O)CC2)nc(Nc2ccc3c(ccn3Cc3ccccc3)c2)n1 [CGP-082996 (CINK4)]; settings: top dose 5.12 µM; top dose inferred
Experimental: (§1)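 Human cancer cell lines in 384-well plates, medium with 10% serum, drug for 72 h over a 256-fold dose range (nine 2-fold or five 4-fold steps up to the top dose). Adherent lines were fixed and stained with the nucleic acid dye Syto60, suspension lines read with resazurin; signal relative to control wells, capped at 0 and 100%. One two-parameter sigmoid per drug and line, fitted in a mixed model over all curves with the slope shared within a line.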

[2] = compound: Cc1cccc(-c2[nH]c(C(C)(C)C)nc2-c2ccc3nccnc3c2)n1 [SB-525334]; settings: top dose 20 µM; top dose inferred
Experimental: as §1

[3] = compound: O=C(c1cc(Cc2n[nH]c(=O)c3ccccc23)ccc1F)N1CCN(C(=O)C2CC2)CC1 [Olaparib]
Experimental: as §1

[4] = compound: COc1cc(-c2nn([C@H]3CC[C@H](N4CCN(C(C)=O)CC4)CC3)c3ncnc(N)c23)ccc1NC(=O)c1cc2ccccc2n1C [A-770041]; settings: top dose 5.12 µM; top dose inferred
Experimental: as §1

[5] = compound: Cc1cc(N2CCOCC2)cc2[nH]c(-c3c(NC[C@@H](O)c4cccc(Cl)c4)cc[nH]c3=O)nc12 [BMS-536924]
Experimental: as §1

[6] = compound: O=C1NC(=O)c2c1c(-c1ccccc1Cl)cc1[nH]c3ccc(O)cc3c21 [Wee1 inhibitor 681640]; settings: top dose 2 µM; top dose inferred
Experimental: as §1

[7] = compound: NC(=O)c1ccc(N(C(N)=O)c2c(F)cccc2F)nc1-c1ccc(F)cc1F [VX-702]; settings: top dose 2 µM; top dose inferred
Experimental: as §1

[8] = compound: Cc1ccc(-n2nc(C(C)(C)C)cc2NC(=O)Nc2ccc(OCCN3CCOCC3)c3ccccc23)cc1 [BIRB 0796]; settings: top dose 10 µM; top dose inferred
Experimental: as §1

[9] = compound: COc1cc(N2CCN(C)CC2)ccc1Nc1ncc2c(n1)N(C)c1ccccc1C(=O)N2C [XMD8-85]; settings: top dose 8 µM; top dose inferred
Experimental: as §1

[10] = compound: CNC(=O)c1ccc(Nc2cc(Nc3ccccc3S(=O)(=O)C(C)C)c3cc[nH]c3n2)nc1 [HG-5-113-01]; settings: top dose 10 µM; top dose inferred
Experimental: as §1

[11] = compound: CC(C)=CC[C@@H](O)C1=CC(=O)c2c(O)ccc(O)c2C1=O [Shikonin]; settings: top dose 16 µM; top dose inferred
Experimental: as §1

[12] = top dose 5 µM, screen: GDSC drug entry 1017, top dose inferred
[13] = top dose 10 µM, screen: GDSC drug entry 1495
[14] = top dose 4 µM, screen: GDSC drug entry 1091, top dose inferred
[15] = top dose 5.12 µM, screen: GDSC drug entry 62

Cell Line MDST8 (large intestine, adherent) has an AUC [1] of 0.987, an IC50 [1] greater than 5.12 µM and an AUC [2] of 0.893. The IC50 [2] was greater than 20 µM, the AUC [3, 12] was 0.944 and the IC50 [3, 12] was greater than 5 µM. The AUC [3, 13] was 0.986, the IC50 [3, 13] was greater than 10 µM and the AUC [4] was 0.98. The IC50 [4] was greater than 5.12 µM, the AUC [5, 14] was 0.944 and the IC50 [5, 14] was greater than 4 µM. The AUC [5, 15] was 0.94, the IC50 [5, 15] was greater than 5.12 µM and the AUC [6] was 0.945. It also gave an IC50 [6] greater than 2 µM, an AUC [7] of 0.984 and an IC50 [7] greater than 2 µM. It also gave an AUC [8] of 0.963, an IC50 [8] greater than 10 µM and an AUC [9] of 0.981. For the same cell line, the IC50 [9] was greater than 8 µM, the AUC [10] was 0.816 and the IC50 [10] was 5.5 µM. For the same cell line, the AUC [11] was 0.527 and the IC50 [11] was 1.18 µM.

In the case of “MLMA (hairy cell leukaemia, semi-adherent)”, the AUC [1] is reported as 0.962, the IC50 [1] is reported as greater than 5.12 µM and the AUC [2] is reported as 0.927. The IC50 [2] was greater than 20 µM, the AUC [3, 12] was 0.961 and the IC50 [3, 12] was greater than 5 µM. The AUC [3, 13] was 0.972, the IC50 [3, 13] was greater than 10 µM and the AUC [4] was 0.441. It also gave an IC50 [4] of 0.22 µM, an AUC [5, 14] of 0.886 and an IC50 [5, 14] greater than 4 µM. It also gave an AUC [5, 15] of 0.732, an IC50 [5, 15] of 1.48 µM and an AUC [6] of 0.699. It also gave an IC50 [6] of 0.455 µM, an AUC [7] of 0.969 and an IC50 [7] greater than 2 µM. For the same cell line, the AUC [8] was 0.909, the IC50 [8] was greater than 10 µM and the AUC [9] was 0.957. The IC50 [9] was greater than 8 µM, the AUC [10] was 0.728 and the IC50 [10] was 2.8 µM. For the same cell line, the AUC [11] was 0.33 and the IC50 [11] was 0.335 µM.

Cell Line MMAC-SF (melanoma, adherent) has an AUC [1] of 0.97, an IC50 [1] greater than 5.12 µM and an AUC [2] of 0.987. For the same cell line, the IC50 [2] was greater than 20 µM, the AUC [3, 12] was 0.986 and the IC50 [3, 12] was greater than 5 µM. It also gave an AUC [3, 13] of 0.973, an IC50 [3, 13] greater than 10 µM and an AUC [4] of 0.878. The IC50 [4] was greater than 5.12 µM, the AUC [5, 14] was 0.794 and the IC50 [5, 14] was 1.93 µM. For the same cell line, the AUC [5, 15] was 0.571, the AUC [6] was 0.986 and the IC50 [6] was greater than 2 µM. For the same cell line, the AUC [7] was 0.973, the IC50 [7] was greater than 2 µM and the AUC [8] was 0.96. It also gave an IC50 [8] greater than 10 µM, an AUC [9] of 0.966 and an IC50 [9] greater than 8 µM. It also gave an AUC [10] of 0.819, an IC50 [10] of 6.03 µM and an AUC [11] of 0.471. For the same cell line, the IC50 [11] was 0.828 µM.

With MN-60 (B-cell leukaemia, suspension) the AUC [1] was 0.973, the IC50 [1] was greater than 5.12 µM and the AUC [2] was 0.907. The IC50 [2] was greater than 20 µM, the AUC [3, 12] was 0.981 and the IC50 [3, 12] was greater than 5 µM. For the same cell line, the AUC [3, 13] was 0.981, the IC50 [3, 13] was greater than 10 µM and the AUC [4] was 0.983. For the same cell line, the IC50 [4] was greater than 5.12 µM, the AUC [5, 14] was 0.963 and the IC50 [5, 14] was greater than 4 µM. The AUC [5, 15] was 0.959, the IC50 [5, 15] was greater than 5.12 µM and the AUC [6] was 0.988. It also gave an IC50 [6] greater than 2 µM, an AUC [7] of 0.982 and an IC50 [7] greater than 2 µM. The AUC [8] was 0.988, the IC50 [8] was greater than 10 µM and the AUC [9] was 0.912. For the same cell line, the IC50 [9] was greater than 8 µM, the AUC [10] was 0.804 and the IC50 [10] was 5.25 µM. The AUC [11] was 0.369 and the IC50 [11] was 0.427 µM.

Work on MSTO-211H (mesothelioma, adherent) yielded an AUC [1] of 0.981, an IC50 [1] greater than 5.12 µM and an AUC [2] of 0.985. For the same cell line, the IC50 [2] was greater than 20 µM, the AUC [3, 12] was 0.991 and the IC50 [3, 12] was greater than 5 µM. It also gave an AUC [4] of 0.982, an IC50 [4] greater than 5.12 µM and an AUC [5, 14] of 0.902. It also gave an IC50 [5, 14] greater than 4 µM, an AUC [5, 15] of 0.957 and an IC50 [5, 15] greater than 5.12 µM. The AUC [6] was 0.942, the IC50 [6] was greater than 2 µM and the AUC [7] was 0.991. The IC50 [7] was greater than 2 µM, the AUC [8] was 0.991 and the IC50 [8] was greater than 10 µM. For the same cell line, the AUC [9] was 0.987, the IC50 [9] was greater than 8 µM and the AUC [10] was 0.707. The IC50 [10] was 2.24 µM, the AUC [11] was 0.984 and the IC50 [11] was greater than 16 µM.

Source: the supplement of paper PMC4967469
